No constants are given. Whether binding was seen depends on the method and setting. Binding seen in cells or lysates may run through a third protein. Some results given as binding are weak or reduced against the parent protein; the word gives no strength. For part of these data: Where a sequence is shown, tags or fusion partners need not be part of it.

Assay [1] concerns the target T1, human FRMD8-V5 (human) (UniProt Q9BZ67).
T1 sequence: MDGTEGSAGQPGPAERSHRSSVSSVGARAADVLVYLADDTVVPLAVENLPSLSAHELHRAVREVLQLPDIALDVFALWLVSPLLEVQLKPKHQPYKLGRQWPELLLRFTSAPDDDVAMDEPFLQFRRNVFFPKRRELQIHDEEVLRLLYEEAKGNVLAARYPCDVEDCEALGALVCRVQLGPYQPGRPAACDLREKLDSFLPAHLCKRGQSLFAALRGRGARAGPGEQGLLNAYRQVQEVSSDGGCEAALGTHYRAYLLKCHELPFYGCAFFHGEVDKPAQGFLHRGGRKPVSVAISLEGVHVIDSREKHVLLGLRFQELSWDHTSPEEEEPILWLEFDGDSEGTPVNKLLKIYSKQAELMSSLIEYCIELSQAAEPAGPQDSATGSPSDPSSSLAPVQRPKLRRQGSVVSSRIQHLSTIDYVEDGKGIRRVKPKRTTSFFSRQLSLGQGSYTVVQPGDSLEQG
Kind of assay: co-IP; lysates in 1% Triton X-100, 150 mM NaCl, 50 mM Tris-HCl pH 7.5; anti-HA or anti-V5 magnetic beads 1 hr at 4°C; wash with 300 mM NaCl; western blot; HEK293T cells (wild type, ADAM17 KO, FRMD8 KO, or iRhom1/2 DKO reconstituted with iRhom2^WT-3xHA; with or without 200 nM PMA for 30 min). For orientation: In western blotting, separated proteins are transferred to a membrane and probed.

Assay [2] concerns the target T2, human iRhom2-3xHA (human) (UniProt Q6PJF5).
T2 sequence: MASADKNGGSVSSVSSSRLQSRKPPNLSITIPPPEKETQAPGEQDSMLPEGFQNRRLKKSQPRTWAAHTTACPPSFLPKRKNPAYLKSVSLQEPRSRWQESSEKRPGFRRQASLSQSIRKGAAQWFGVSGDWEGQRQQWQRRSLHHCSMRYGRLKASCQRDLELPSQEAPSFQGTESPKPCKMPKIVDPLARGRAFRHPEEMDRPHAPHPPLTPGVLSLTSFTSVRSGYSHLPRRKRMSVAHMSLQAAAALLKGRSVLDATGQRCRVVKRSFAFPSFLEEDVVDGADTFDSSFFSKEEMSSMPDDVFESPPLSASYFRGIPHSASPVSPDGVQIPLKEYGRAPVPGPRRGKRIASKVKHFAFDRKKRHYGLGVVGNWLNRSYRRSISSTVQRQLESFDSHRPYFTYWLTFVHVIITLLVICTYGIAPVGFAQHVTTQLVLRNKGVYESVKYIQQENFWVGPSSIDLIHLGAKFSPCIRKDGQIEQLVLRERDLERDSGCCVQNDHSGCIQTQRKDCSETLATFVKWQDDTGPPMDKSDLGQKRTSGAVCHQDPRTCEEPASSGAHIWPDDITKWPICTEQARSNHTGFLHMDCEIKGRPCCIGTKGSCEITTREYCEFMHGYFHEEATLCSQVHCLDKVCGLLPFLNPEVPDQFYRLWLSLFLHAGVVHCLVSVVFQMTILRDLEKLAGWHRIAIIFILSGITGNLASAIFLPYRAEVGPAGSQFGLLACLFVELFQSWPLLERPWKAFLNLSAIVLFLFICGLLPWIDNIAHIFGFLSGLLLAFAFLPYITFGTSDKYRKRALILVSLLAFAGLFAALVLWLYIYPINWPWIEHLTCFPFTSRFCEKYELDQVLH
The assay is described as above.

B1: human iRhom1-3xHA (protein, UniProt Q96CC6 1-855)
chain: MSEARRDSTSSLQRKKPPWLKLDIPSAVPLTAEEPSFLQPLRRQAFLRSVSMPAETAHISSPHHELRRPVLQRQTSITQTIRRGTADWFGVSKDSDSTQKWQRKSIRHCSQRYGKLKPQVLRELDLPSQDNVSLTSTETPPPLYVGPCQLGMQKIIDPLARGRAFRVADDTAEGLSAPHTPVTPGAASLCSFSSSRSGFHRLPRRRKRESVAKMSFRAAAALMKGRSVRDGTFRRAQRRSFTPASFLEEDTTDFPDELDTSFFAREGILHEELSTYPDEVFESPSEAALKDWEKAPEQADLTGGALDRSELERSHLMLPLERGWRKQKEGAAAPQPKVRLRQEVVSTAGPRRGQRIAVPVRKLFAREKRPYGLGMVGRLTNRTYRKRIDSFVKRQIEDMDDHRPFFTYWLTFVHSLVTILAVCIYGIAPVGFSQHETVDSVLRNRGVYENVKYVQQENFWIGPSSEALIHLGAKFSPCMRQDPQVHSFIRSAREREKHSACCVRNDRSGCVQTSEEECSSTLAVWVKWPIHPSAPELAGHKRQFGSVCHQDPRVCDEPSSEDPHEWPEDITKWPICTKNSAGNHTNHPHMDCVITGRPCCIGTKGRCEITSREYCDFMRGYFHEEATLCSQVHCMDDVCGLLPFLNPEVPDQFYRLWLSLFLHAGILHCLVSICFQMTVLRDLEKLAGWHRIAIIYLLSGVTGNLASAIFLPYRAEVGPAGSQFGILACLFVELFQSWQILARPWRAFFKLLAVVLFLFTFGLLPWIDNFAHISGFISGLFLSFAFLPYISFGKFDLYRKRCQIIIFQVVFLGLLAGLVVLFYVYPVRCEWCEFLTCIPFTDKFCEKYELDAQLH
For B1, the binding result in assay [1] is given as “binds”.

B2: human iRhom2-3xHA (protein, UniProt Q6PJF5-1 1-856)
chain: T2 sequence
Consider B2, for which the binding result in assay [1] is given as “binds”.

B3: endogenous FRMD8 (protein, UniProt Q9BZ67 1-464)
chain: T1 sequence
Turning to B3, the binding result in assay [2] is recorded as “binds”.

The record behind these values is article PMC6042961.
